Assay results taken from the supplement of paper PMC4604168 (melanoma cell lines).
The other results are listed elsewhere or left out. Single values are uncertain, as repeats are few or missing.

Assays:
Experiment in all cases: cell count relative to DMSO control; melanoma cells; higher = more viable cells
Conditions in all cases: library dose: standard library concentration; 72 h
[1] = system: SkMel30
[2] = system: SkMel5
[3] = system: UACC257
[4] = system: UACC62
[5] = system: WM115
[6] = system: WM1716
[7] = system: WM1745
[8] = system: WM3526
[9] = system: WM3619
[10] = system: WM451Lu
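Further: cells treated in 1,536-well plates, then fixed and DAPI-stained, with nuclei counted from automated high-throughput microscope images.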

Compound	cell count [1]	cell count [2]	cell count [3]	cell count [4]	cell count [5]	cell count [6]	cell count [7]	cell count [8]	cell count [9]	cell count [10]
c1cc(-c2cnn3cc(-c4ccc(OCCN5CCCCC5)cc4)cnc23)ccn1 [Dorsomorphin] + CCCCCCCCCCCC1=C(O)C(=O)C=C(O)C1=O [Embelin] (first compound 2 µM, partner dose 6 µM)	94.2%	88.6%	68.5%	96.6%	65.3%	77.8%	50.4%	71.2%	74.8%	61.9%
COC(=O)c1sccc1S(=O)(=O)Nc1ccc(Nc2ccccc2)cc1OC + CCN(CC)CCCCNc1ncc2cc(-c3cc(OC)cc(OC)c3)c(NC(=O)NC(C)(C)C)nc2n1 [PD173074] (first compound 5 µM, partner dose 0.5 µM)	92.5%	90.8%	100%	84.6%	93.5%	98.6%	85.1%	87.1%	74.7%	79%
COc1ccc2c(c1)CCC1C2CCC2(C)C(NCCCCCCN3C(=O)C=CC3=O)CCC12 (stereo not given) + Oc1nc(-c2ccc(C(F)(F)F)cc2)nc2c1CSCC2 [XAV939] (first compound 2 µM, partner dose 10 µM)	110%	88.2%	81.5%	74.1%	88.2%	66.4%	72.8%	104%	78%	93.8%
COc1ccc(-c2ccc3c(N4CCOCC4)nc(N4C[C@@H](C)O[C@@H](C)C4)nc3n2)cc1CO + CC(C)CCN1c2nc(Nc3cc(F)c(O)c(F)c3)ncc2N(C)C(=O)C1C [BID1870] (first compound 0.1 µM, partner dose 1 µM)	78%	66.1%	66.8%	87.9%	80.6%	53.8%	93.7%	63.8%	72.2%	78.5%
